Experimental data reported in the RNAGym collection of RNA variant scans (doi:10.1073/pnas.2313332121).
Variants at the floor of the assay are shown more often than the library holds them.

B1: TPR 5TU (parent)
chain: GGAUCUUCUCGAUCUAACAAAAAAGACAAAUCUGCCACAAAGCUUGAGAGCAUCUUCGGAUGCAGAGGCGGCAGCCUUCGGUGGCGCGAUAGCGCCAACGUUCUCAACUAUGACACGCAAAACGCGUGCUCCGUUGAAUGGAGUUUAUCAUG

Variants of: B1
Assay: polymerase ribozyme fitness, log enrichment relative to wild type (log ratio); higher = more active; in vitro selection for triplet polymerase activity
Procedure, shortened: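 Genotype fitness is the logarithm of its enrichment divided by wild-type enrichment, using inverse-variance-weighted averages of replicates. That logarithm is base 2. Enrichment was measured by Illumina sequencing of input and output libraries from one triplicate in vitro selection round, with frozen incubation at −7 °C, on PCR-built, transcribed mutant libraries of each subunit of a heterodimeric triplet polymerase ribozyme, retaining genotypes with ≥10 input reads and ≥1 read per output.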

| Variant | polymerase ribozyme fitness (log ratio) |
| --- | --- |
| A39G C51U G83A C95U A142C | ≤ -4.2 |
| A39G C54A U90C A142U | ≤ -4.2 |
| A39G C79U G94A | ≤ -4.2 |
| A39G C103G G126U | ≤ -4.2 |
| A39G G42A A73G A106G G124A G126A G136U | ≤ -4.2 |
| A39G G42A G48C A49C G83U C87G C96A A107U | ≤ -4.2 |
| A39G G50C C51G G58A C93G U139G | ≤ -4.2 |
| A39G G58C A91U A97C | ≤ -4.2 |
| A39G G83A G117U U144C | ≤ -4.2 |
| A39G G83A U101A | ≤ -4.2 |
| A39G G88U | ≤ -4.2 |
| A39G G141C | -2.65 |
| A39G U55G G84A U135G | ≤ -4.2 |
| A39G U78G G112C G126U A147C | ≤ -4.2 |
| A39G U134G | -3.86 |
| A39U A40C A52C G140C | ≤ -4.2 |
| A39U A40C G42U G48A A60U U82G C85A U104A U127C | ≤ -4.2 |
| A39U A40G G62C G92U | ≤ -4.2 |
| A39U A41U C57U A60C C87A | ≤ -4.2 |
| A39U A47G C95U A110G | -3.7 |
| A39U A49C A137G | ≤ -4.2 |
| A39U A49C U61A C96A | ≤ -4.2 |
| A39U A52C C63G A121C | ≤ -4.2 |
| A39U A64G C87A A98U U135G | ≤ -4.2 |

| Variant | polymerase ribozyme fitness (log ratio) |
| --- | --- |
| A39U A66G A91G G152U | ≤ -4.2 |
| A39U A107G G140C | ≤ -4.2 |
| A39U C51G U55G U61G C85U C99U | ≤ -4.2 |
| A39U C51U C54U A60G U82G A98C | -3.88 |
| A39U C54U U61A C93U A106U | ≤ -4.2 |
| A39U C57A G68A A110G G133U | ≤ -4.2 |
| A39U C75G C93A U102G | ≤ -4.2 |
| A39U C75G G92U G124C C149G | ≤ -4.2 |
| A39U C76G G92U C108U | ≤ -4.2 |
| A39U C79A C125U U135G | ≤ -4.2 |
| A39U C85U U90G C118U C125U | ≤ -4.2 |
| A39U C93A C105G A113U C114G | ≤ -4.2 |
| A39U C99U C125G U134C A138G | ≤ -4.2 |
| A39U G46A C93G A119U U139G | ≤ -4.2 |
| A39U G48C C54U C85A | ≤ -4.2 |
| A39U G48C C87G U90C A120G | ≤ -4.2 |
| A39U G50U G83A C96G C103U U135G | ≤ -4.2 |
| A39U G58U A60U G65A G74C C75G C87A | ≤ -4.2 |
| A39U G59C G84A G92C A138U U139A | ≤ -4.2 |
| A39U G68U G86U A120G | ≤ -4.2 |
| A39U G71A C76A G80U C103G C149G | ≤ -4.2 |
| A39U G71C C95G G143A U144C | ≤ -4.2 |
| A39U G81A C99U U104C G117A | -3.48 |
| A39U G86A | -3.06 |

| Variant | polymerase ribozyme fitness (log ratio) |
| --- | --- |
| A39U G88C A115C G124A | ≤ -4.2 |
| A39U U53A A91G A97G U111G | -4.05 |
| A39U U55A A64G | ≤ -4.2 |
| A39U U55G U56A C96U C103U A110C | ≤ -4.2 |
| A39U U101C U144G | -2.52 |
| A40C A41C G58C A91U G124A C125A | ≤ -4.2 |
| A40C A41U C99U C125A | -2.04 |
| A40C A49C C57G G74C C87G A89G U104G | ≤ -4.2 |
| A40C A52C G83A | -2.55 |
| A40C A52G U82A G92U A106U | -3.38 |
| A40C A52U C57U G67U | ≤ -4.2 |
| A40C A60G U61G C93A G152U | ≤ -4.2 |
| A40C A64U C114A | ≤ -4.2 |
| A40C A73C C95A | ≤ -4.2 |
| A40C A89C C93G U102G C103A U145G | ≤ -4.2 |
| A40C A91U C96G | ≤ -4.2 |
| A40C C43U C75U C85G C93G C132U U146C | ≤ -4.2 |
| A40C C54G G92A A121U C132U U146A | ≤ -4.2 |
| A40C C57U U82C C87A U101C C114A | ≤ -4.2 |
| A40C C69A C76A | ≤ -4.2 |
| A40C C75A G92C A97U A121U | ≤ -4.2 |
| A40C C76G U151A | ≤ -4.2 |
| A40C C76U C95A C131G G141U | -1.68 |
| A40C C85A | -2.39 |

| Variant | polymerase ribozyme fitness (log ratio) |
| --- | --- |
| A40C C85G C87G G94U A97G | ≤ -4.2 |
| A40C C87U G112U | ≤ -4.2 |
| A40C C93A C99U G133C | -3.98 |
| A40C C93G G94U C99G C114U C131A | ≤ -4.2 |
| A40C C95U | -0.646 |
| A40C C96U A122G G124C | -0.809 |
| A40C G42C C69G C85A U104G G128C G133A | ≤ -4.2 |
| A40C G46U A73G C75G C79U C96U A106G A137G | ≤ -4.2 |
| A40C G48A G58A C87U | -2.55 |
| A40C G50A C72U U78C C87U | ≤ -4.2 |
| A40C G50A C95U U148C | ≤ -4.2 |
| A40C G58C U77A | ≤ -4.2 |
| A40C G59A A73U C87A U90A U101G C129G G143C | ≤ -4.2 |
| A40C G62U C72A G80A C118G | ≤ -4.2 |
| A40C G70A | -2.97 |
| A40C G70C C103G | ≤ -4.2 |
| A40C G71A | ≤ -4.2 |
| A40C G80C G86C G128A | ≤ -4.2 |
| A40C G80U C85G A89G C118A | ≤ -4.2 |
| A40C G81A | 0.951 |
| A40C G86A G100U | ≤ -4.2 |
| A40C G88U C96U A122U U127G U148A A150U | ≤ -4.2 |
| A40C G92U G94A | 0.834 |
| A40C G94U C95G | -3.87 |

| Variant | polymerase ribozyme fitness (log ratio) |
| --- | --- |
| A40C G143A | -0.684 |
| A40C U44A A60U G133C G136A G141C | ≤ -4.2 |
| A40C U44A G83A U101C G141U G152U | ≤ -4.2 |
| A40C U45A G50A A73U G92A | ≤ -4.2 |
| A40C U53A | 0.24 |
| A40C U53A C114A U144G | ≤ -4.2 |
| A40C U53G A66G A119G | ≤ -4.2 |
| A40C U56A G128C | -3.92 |
| A40C U82G A89G | 0.203 |
| A40C U90G A107U A150G | ≤ -4.2 |
| A40C U90G U139A | ≤ -4.2 |
| A40C U146G | -0.247 |
| A40C U148A | -3.51 |
| A40G A41C A52G G71U A107G U111G U139C U146G C149A U151G | ≤ -4.2 |
| A40G A41G C63U C76A G83C G124A | ≤ -4.2 |
| A40G A41G U53G C85A U127G C131U G143A | ≤ -4.2 |
| A40G A49U A60C C76A C96U U134G | ≤ -4.2 |
| A40G A52C A66U C75G C79G A120C | ≤ -4.2 |
| A40G A60C G84A C96U U101G C105G U144C | ≤ -4.2 |
| A40G A60C G88A C103A | ≤ -4.2 |
| A40G A91G A115G C116G A142C | ≤ -4.2 |
| A40G A115G A137G C149U | -4.02 |
| A40G A137C G141U U144A | ≤ -4.2 |
| A40G C51U C87G G117U G133U | ≤ -4.2 |

| Variant | polymerase ribozyme fitness (log ratio) |
| --- | --- |
| A40G C75G | -4.09 |
| A40G C76U C95U C116G | -3.42 |
| A40G C85A G133C G136A | -3.86 |
| A40G C85G U111G U151C | ≤ -4.2 |
| A40G C87U C103G | ≤ -4.2 |
| A40G C95A U104G A142G | -3.8 |
| A40G C105U A115U A138G | ≤ -4.2 |
| A40G C149A | -3.98 |
| A40G G42A C85G U109A A113C G140A | ≤ -4.2 |
| A40G G42C G94A | ≤ -4.2 |
| A40G G42C U44A G92C | ≤ -4.2 |
| A40G G50A G70C G92C A98U U151A | ≤ -4.2 |
| A40G G58C C79G C87U G136U A147U G152A | ≤ -4.2 |
| A40G G59C C79U C85U U151G | ≤ -4.2 |
| A40G G70C C85A | ≤ -4.2 |
| A40G G81A G88C | ≤ -4.2 |
| A40G G83U G100C | ≤ -4.2 |
| A40G G92A U101G G117C | ≤ -4.2 |
| A40G U53A A73U C93G A137U | ≤ -4.2 |
| A40G U53G U55A A66C G84U A89G C108U | ≤ -4.2 |
| A40G U55A G83A U104G | ≤ -4.2 |
| A40G U56A G83C C125U G141A | ≤ -4.2 |
| A40G U77G G80A C93A A107G A120C A121U | ≤ -4.2 |
| A40G U82G | -1.38 |

| Variant | polymerase ribozyme fitness (log ratio) |
| --- | --- |
| A40G U102C U139G G140U | ≤ -4.2 |
| A40U A41C C96U | -0.566 |
| A40U A41G G42U U45A U53A A73G C87A G143U | ≤ -4.2 |
| A40U A47C A66C C76U C93A A98G C99G U104C A150U | ≤ -4.2 |
| A40U A49C C72A C95U C99G A138C | ≤ -4.2 |
| A40U A49C G50A G65U C76G U78C A106C U111G A115G U127A A150C | ≤ -4.2 |
| A40U A49G C63U C87U A107U G117C G133A U135A | ≤ -4.2 |
| A40U A49G C63U C87U A107U U139G | ≤ -4.2 |
| A40U A52C C85G U111C G140U A150C | ≤ -4.2 |
| A40U A52G G58C C75U G141U | -2.07 |
| A40U A52G G94U U109C | ≤ -4.2 |
| A40U A52G G100C | ≤ -4.2 |
| A40U A60G G112C | ≤ -4.2 |
| A40U A64C C72U C85A G94C | ≤ -4.2 |
| A40U A89G A91U C93G A107G C123G C125A | ≤ -4.2 |
| A40U A91G | -3.33 |
| A40U A91U U102A U104C U139A | ≤ -4.2 |
| A40U A106G | 0.3 |
| A40U A122C | 0.0565 |
| A40U C43G C72A C79A U101A | ≤ -4.2 |
| A40U C54A A110G A120U | -4.07 |
| A40U C57A G86A A110U C125A G141U | ≤ -4.2 |
| A40U C63U G70C | -2.97 |
